Test results reported in the supplement of paper PMC3334620.
Over roughly 33,000 sequences, “E-score (-0.5 to 0.5)” has its median near -0.017; the highest 2% begin near 0.3. The list shows a part of the results.

target: T1, Sut1 (UniProt P53032); assay: PBM E-score (8-mer binding enrichment) (E-score (-0.5 to 0.5)); higher = stronger / more preferred TF binding; most listed sequences are background and not binding sites; conditions: protein concentration: 200 nM; construct: GST-full length
T1 sequence: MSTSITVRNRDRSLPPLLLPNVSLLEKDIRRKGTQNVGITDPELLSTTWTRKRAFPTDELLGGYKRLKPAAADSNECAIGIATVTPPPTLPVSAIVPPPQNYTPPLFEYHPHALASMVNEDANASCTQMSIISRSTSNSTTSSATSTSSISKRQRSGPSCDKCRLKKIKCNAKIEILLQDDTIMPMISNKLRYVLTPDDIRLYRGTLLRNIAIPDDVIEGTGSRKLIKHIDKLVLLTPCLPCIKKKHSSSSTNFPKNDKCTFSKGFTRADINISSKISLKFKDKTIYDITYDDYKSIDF
Summary of the method: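 Using PURExpress in vitro transcription/translation, GST-tagged yeast transcription factors were made in full-length or DNA-binding-domain form. These were applied at about 100-200 nM to double-stranded universal all-10-mer Agilent arrays, and bound protein was detected with fluorescent anti-GST. Scans were normalised with masliner before the Universal PBM Analysis Suite assigned E-scores to ungapped eight-base words pooled with their reverse complements.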

Sequence	PBM E-score
ATGCAAAG	0.0945
GGGCTTCA	-0.272
CAAACGCG	0.109
ATAGTCAG	-0.0499
GCACCAGA	-0.2
CCGCTTTC	0.0502
AGCCGCAA	-0.256
CGACCTCG	-0.00301
ACAATAAT	0.197
ACTGAAGC	-0.0682
CACTCCTG	-0.0764
TCACGAGA	-0.0654
GTAAACAA	0.273
CGCCATCC	-0.18
ATAGCTCC	0.0632
CAAAAGTC	0.191
CACTCCAA	0.0306
ATGGGAAA	0.0371
GTGTCTTA	-0.0906
ACCATAGT	0.029
GCTATACA	0.0896
GCGTAATA	0.0496
GACTCGGC	-0.033
AGTACGCG	-0.00947
GAATAGTC	0.0449

Sequence	PBM E-score
TATCCCCA	-0.114
CTTTCTTA	0.14
AAGATCCA	0.0401
GTTCAATA	0.206
CTTCCGGA	0.347
AACCTCTG	-0.171
AACAAGTA	0.0236
CCCTCCCA	-0.0718
ATGGTATA	0.144
GGAAAGAA	0.21
TGGCGCCA	-0.283
ACTGGGTC	-0.178
CCTGGGAC	-0.394
CGGGGTCA	0.0587
TGCGCCAA	-0.0704
CCCCTTAC	-0.196
AGTATACG	0.0431
AATTTACA	0.11
ATAACATC	0.146
CAATAGCA	0.0114
ACTACGCC	-0.156
GCTTACGA	-0.148
ATTCTAAC	0.0886
GTAATAGA	0.101
CGTCTCAA	-0.0774

Sequence	PBM E-score
AAAGAAAA	0.26
AAATAAAA	0.234
AGCCAGTA	-0.0522
ACATTCAG	-0.0953
TAGATATA	0.24
CTTACCAC	-0.122
AATACAAC	0.224
AATAACCA	0.078
GAGGAATC	-0.0293
ATGATTAC	0.134
CGCACGGC	-0.201
ATATAAAC	0.227
GGGTTTAA	0.0821
AGTCGGCC	0.041
TCGGGCAA	-0.0147
GTTGCGAA	0.0959
GTCGGTAA	0.0048
AGACAGCG	-0.0861
TACAGCTA	-0.185
CGACTTGC	-0.194
ACGCAAAT	0.0352
GTGAGGAA	0.0112
ACAATGAT	0.108
CGTGAAAC	0.0681
GACATTAA	0.159

Sequence	PBM E-score
CCCCACGA	-0.201
CATGAGGA	-0.0148
TCCACGAA	0.0544
AGCTCCTC	-0.098
CCGTGCCC	-0.0573
ATGTTGAA	0.131
AGTTTCAA	0.0369
CTCAATGC	-0.0534
AACGATGC	-0.0717
AAACGAGT	0.133
CCCCTCCA	-0.258
CTATAACA	0.0773
ACGATGGG	-0.221
AGATTCCC	-0.208
AACTGCTC	-0.0543
CCTGGGGC	-0.334
ACATGAAT	0.109
CGCTCTCC	0.0191
CATCTGCC	0.00624
CATTTCAC	0.0596
TAATCAGA	0.148
GCCCTCAC	-0.308
CTCCGCAC	0.306
CCAGTCCG	0.222
CCATTATC	0.00681

Sequence	PBM E-score
ACGCGCCC	-0.19
GTTGGCTA	-0.0553
AACAGATC	0.163
GGGTTACC	-0.268
GCTGCTAA	-0.0153
AATACAGG	0.0674
CGTGCAAC	0.0561
GTCTTAGA	-0.0371
ATAGCCTA	-0.0327
ATAACGGA	0.341
AGGCTTAT	-0.073
ACAACCCC	-0.0152
GATGGTAC	-0.0365
CAATTGTA	0.0377
ATCAGATC	0.0109
CGTGGATA	-0.0261
AACGAGTA	0.0812
AGCACACT	0.0854
ACGTTCAG	-0.347
GCGGTACA	0.0293
ATCCAGTC	0.0525
AAGCGGTC	-0.0841
AGACTACC	0.0631
GCATAGCC	-0.156
ATCAAACC	0.138

Sequence	PBM E-score
CTTCGCTC	-0.0339
CAGCTGGG	-0.178
GGTTAATA	0.163
GAAATCCA	0.115
CTGCCGTC	-0.218
ATTCCTCC	0.0322
AAGTGATT	0.237
CTGTTCGA	0.064
GGGTGAAC	0.0587
CTAACGAA	-0.0566
ATAGACCG	-0.0673
GACTTTTA	0.203
CTGTTGCC	-0.176
GCAAAAGA	-0.0341
GTGTTTAA	0.242
ACGATTAG	0.085
ATAGCCCG	0.0153
ATACGCGG	-0.00574
AGGGACTG	-0.308
AAGAACGG	0.131
AGAAGGCC	-0.061
AAGTCATC	-0.0338
CGATTCTA	-0.0107
CTGCCAAA	-0.0297
CTACCGCC	-0.134

Sequence	PBM E-score
AGTCCACT	-0.112
AAGAAGGT	0.0448
AAAAGTCC	0.394
TGGAGGAA	-0.165
CGATAAGC	-0.07
AGATAGGG	-0.0447
AGACCAAG	0.186
ACCGGTAC	-0.099
GAATGCAA	0.0823
GAAAATGA	0.183
AATAATGA	0.203
ATGCGAAT	0.147
ACGGGCAC	-0.249
AACGGATA	0.285
CCAGTCAA	-0.0619
AACCTTAT	-0.0449
AATAGATC	0.0781
CGCGAGGC	-0.026
CCTTAGCC	-0.153
TCTAAAGA	0.0807
GGCCACCA	-0.115
CGTCCATA	-0.0391
GCGGTATA	-0.0696
CGGAATTA	0.349
AGAGCAAG	-0.0629

Sequence	PBM E-score
ACACGAGT	-0.0151
GTGGCTAA	0.0437
GGTACTAA	0.0592
ACAATCGT	-0.13
CCAAGCGG	-0.272
ACGATCCC	-0.0453
CTATATAC	0.287
CCAACAGG	-0.314
CCCGTTCA	-0.0788
ACCTGATA	0.0775
TTGACAAA	0.232
AAAGGGGG	-0.164
CCCTGTGA	-0.24
CGAACAGC	-0.179
CCTGTTAC	0.0359
CTGTGAAG	-0.0569
GTTGCTAA	0.123
CGATCTAC	-0.0336
GGAAGTTA	0.243
AGGCATCC	-0.18
ATTTCCCA	0.0851
ATAACACG	0.0771
GGTTCATA	-0.0524
CCCCCCGG	-0.367
AATCAAAC	0.176

Sequence	PBM E-score
CCACTTAC	0.0569
CTAGCCGC	-0.0673
AGAGATCC	-0.167
ACTACAAT	0.191
GGCGCGCC	0.0324
ATTGCAAG	-0.0371
CCCGAAAG	0.15
CATGTGGC	-0.152
AGGCAGAA	-0.169
AAGGCTAT	-0.13
AGATCACA	-0.04
GAGATGAA	0.00583
AAAATAGG	0.166
CCGGCGCC	0.0683
GCTAGAGA	-0.0509
ACGGTTCG	-0.0488
CGACTCTC	-0.0232
GAAAGACC	-0.00668
CAGGATAC	-0.16
AATCATAT	0.157
CTGTGTAA	0.0313
TAGGGAAA	0.0398
GTGACAAC	-0.0779
AAGCCTCC	-0.0395
CTTTCATA	0.143

Sequence	PBM E-score
AAAATGTA	0.182
ACGTTCGA	-0.115
AGATGAAC	0.0685
ATGACCAG	-0.165
CTTGATTA	0.0248
ATAGAGTG	0.0862
GGTGGACA	-0.0811
AAATTCGG	0.264
CTATATCA	0.157
CAGGCACG	-0.00271
CCCGCTCC	-0.364
AAGGCCGC	-0.176
AGATTGGC	-0.0976
GGTTGCGA	0.061
CGGGGTTA	0.382
ATAGCAAT	0.193
AATGTTGC	-0.00976
AAGTTGCG	0.108
ACAAGACT	-0.0974
CCCAGGGG	-0.327
GGTAGCCA	0.0621
AGAGCAGG	-0.0733
TATCGAGA	-0.0451
GCCAAGAC	-0.206
CTGACCAC	-0.0844

Sequence	PBM E-score
ATTCGCCA	-0.0811
AAAATCTC	0.0709
CTTCGAGC	0.0866
CGTGATGA	-0.0744
CATTAAAA	0.231
ATGCTAAT	0.148
AAGTCGCT	-0.0636
GGAGGCCC	-0.198
CGCCGGGC	0.00809
GAGCTTAC	0.14
AGGCCTCC	-0.207
ATTGGCTG	-0.179
GGATTCAC	0.0757
TATTGTAA	0.117
TCACCTCA	-0.09
CGGCTCAA	0.0677
AGCCCTAG	-0.0689
GCTAACCA	-0.188
GACCAAAA	0.178
GCGGATAA	0.111
AACTCAGT	-0.0134
ATGTACAC	0.139
CCCGGGGC	-0.0629
CCCTGACG	-0.359
CACGCGGA	0.283

Sequence	PBM E-score
GAACCATC	0.0887
AAAGCATA	0.138
ATCTATAA	0.23
CAGGTACA	-0.124
CATATTCC	-0.0615
GGGCTCCA	-0.126
TACACAAA	0.215
AACTACAC	0.129
CCGCCAAA	0.0836
CCACCCAG	-0.129
AATAGCTA	0.0556
GTATGGAA	-0.012
GATAGTCA	-0.0531
CCTGTGAA	0.109
GCTCTTAA	0.0971
GGGGTAGA	0.097
ATTTTTCG	0.248
GGGTTCAA	0.0726
CCGGATAA	0.285
GTTGGAGA	0.129
CTCTCCCA	-0.23
ACGGCAGG	-0.293
GTATATGA	0.14
ATTTACTA	0.211
CTATTGTC	-0.099

Sequence	PBM E-score
ACGGGAAT	-0.0866
GATGGAAA	-0.0163
TCCTCTCA	0.00795
ACCAAGTA	-0.0637
GTTGTGAA	0.0279
GTCGGGTA	-0.0857
GGGTCTAA	-0.14
CTTAGATA	0.0662
ATACCGTA	0.0339
AATCGCCT	-0.00487
ATGGCCAT	-0.062
GTTACTAA	0.00172
CTGTTCGC	-0.096
CTGGGGTA	-0.187
GCCCACCC	-0.242
GGCCTACA	-0.0249
CGGGGAAC	0.0676
AAAATCGC	0.159
CCGTACAG	0.0728
AACGCTCG	-0.0092
CCAAACTC	0.0933
CGACCTAC	-0.104
ACCCGCGC	-0.0941
GATGGGGC	-0.294
CAATCACA	0.0975

Sequence	PBM E-score
AAACCCAA	0.174
ATGAATTC	0.142
AACAATCA	0.22
ATCATAGG	0.0602
ACCGTAGT	0.138
TGTGTAAA	0.194
CACTTTCC	0.216
ACCCGAAG	-0.178
GCGTTAGC	-0.0681
CAAATTAC	0.14
GAGACGAC	-0.112
CTTAGGAA	0.172
GGGTGCGA	-0.217
AGGTGTCA	-0.0314
TGTTCAAA	0.126
CCGAAAAA	0.352
AAAAATCA	0.183
GTTCAGGA	-0.276
CCATACAA	0.0626
